The other results are listed elsewhere or left out.
Tested on: PF3D7_0420300 AP2 domain 1 (GST-tagged)
Experiment: gcPBM binding intensity (ln(normalized median fluorescence intensity)); higher = stronger DNA binding
Summary of the method: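 After 1 h on an Agilent 4 × 180k array of primer-extended double-stranded 36-bp intergenic genomic probes and negative controls, bound GST-tagged P. falciparum DNA-binding domains were detected with Alexa488 anti-GST antibody and scanned at 488 nm. The domains had been expressed in E. coli, and binding took place in 1× PBS with 1% milk, 0.2 mg/ml BSA, 0.5% salmon testes DNA and 0.03% Triton X-100. Binding intensity is the highest Masliner-normalised natural-log median intensity across replicate spots of either probe orientation.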

| Sequence | gcPBM binding intensity (ln) |
| --- | --- |
| GTTAATTATTAAATTTGTACTCATATATATTATATA [XGTACX_site6862] | 9.37 |
| ACACAATAAACATTATGTACATATAATGTTCTGTGT [XGTACX_site3381] | 9.38 |
| AATGATAATCTATTATGTACACATATATTCTTATGT [XGTACX_site4148] | 9.27 |
| TATACATATGTATGCACACATACATACCCATATAAT [CACACA_site5842] | 9.32 |
| CTATATATAAAATATTGTACTTATTTTTATTACATC [XGTACX_site3963] | 9.11 |
| TTTTCTCAATTTTGGTGTACTTTTTTCTTAACACAT [XGTACX_site8918] | 9.49 |
| TATTTAAAATATTAAATTTGTAAAGTTCGAGGGAAG [GTGCAC_negctrl_site337] | 9.1 |
| GAAAAAAAAATATCTTGTACTTACATAACTATTGGT [XGTACX_site5326] | 9.13 |
| AAAGGTTTATCTGATACACACATAAGTGATCAGGTT [CACACA_site6233] | 9.28 |
| TAAATTAAAAAACATAAACTATTGGAAACGCATTGA [CACACA_negctrl_site935] | 9.46 |
| AATTAATAAAAAAGGTGTACAGTAAATGCAATAATC [XGTACX_site7956] | 9.76 |
| TCTTTTATATATAATAATTATATATAACATTCAAAC [GTGCAC_negctrl_site112] | 9.14 |
| GTTAATCACCATGTGGTGCATATAAGGGCATATTAT [GTGCAC_site9748] | 9.22 |
| CCTTATACGATATTATGTACGCATATGTGCATTTTT [XGTACX_site1570] | 9.35 |
| ATAAATTCATACATTTGTACACAAAAAAAAAAAAAA [XGTACX_site2435] | 9.06 |
| ATATATATATATTTATGTACATATTATTTATTCTTT [XGTACX_site6567] | 9.38 |
| TAATGGTATAAAAAATGTACATGTTTTTTTACAATT [XGTACX_site4285] | 9.15 |
| ATTATTTGATTAAAGGTGCAAGGATAATAATAAAAC | 9.59 |
| TATATTTACTTATATGCACACATAAATGTGAATTAT [CACACA_site9258] | 9.23 |

| Sequence | gcPBM binding intensity (ln) |
| --- | --- |
| TATTATATAATATACTGTACAATATCCATTATTTAC [XGTACX_site7091] | 9.3 |
| ACATATAATAAAATAGTGCATTGTTAGTTTTATATA | 9.26 |
| TTTTTTAAAGTTTAAAGTACATATAAAAATATATAA [XGTACX_site5267] | 8.81 |
| CTTAAAATATATTTAGTGCATATACTAATATATTAT | 9.13 |
| TATATATATATATTATGTACATATATAAATTAACAT [XGTACX_site3368] | 9.2 |
| AATATAGGAATATGCACACATATATACATACATACA [CACACA_site1521] | 9.55 |
| TATGAAAAAAAAAAAAAAAAAAAAAAAAAAAAAAAA [XGTACX_negctrl_site587] | 8.53 |
| AAAAAAATAAAATATATATATATATATATATATATA [GTGCAC_negctrl_site706] | 8.9 |
| TATATATGGATATATACACACAACGGTTATAAATAT [CACACA_site6655] | 9.64 |
| TTTTTGTAACCGATTCTGCACTGAGAAGCACATATA | 9.08 |
| TTATTTACAAAACAAATCAAAATATCCAAAAGAATA [CACACA_negctrl_site1789] | 9.04 |
| GAAATTACTTTATAAACACACATTTATTTTATTTTA [CACACA_site7007] | 9.28 |
| ATATTATACGCATATGTGCGCATACATTTTTTTGCA [GTGCAC_site9540] | 9.24 |
| TACACATACAGACATACACACATACCCATATACTCA [CACACA_site5037] | 9.81 |
| GGCATATATATATGCACACATACATATATACATGTG [CACACA_site3859] | 9.44 |
| ATGTTATTAATAATTGCACACATTTTTTTTTTTTTT [CACACA_site3920] | 9.6 |
| TCATATTTATATAAATGTACTTAATTGGTTTCTTTA [XGTACX_site7848] | 9.24 |
| AGATTGTAAGTAAACACACACACATATATATGTATA [CACACA_site675] | 9.84 |
| TTTATACAAATATGTACACACTAAATATATATTATG [CACACA_site4413] | 9.4 |

| Sequence | gcPBM binding intensity (ln) |
| --- | --- |
| AAAAAAAAAAAAAACACACAGAAATATATATATATT [CACACA_site832] | 9.65 |
| AAAGGAAAAGTTGACTGTACATAAGTAAAAAATAAT [XGTACX_site788] | 9.67 |
| ATTCATTCCATACTTTAACACACAAATATATTTAAT [CACACA_site7930] | 9.57 |
| TATATATATATATGTGGTACATAAAATTATTATTTT [XGTACX_site4554] | 9.24 |
| ATAAAATTATCTACATGTACTCATATATATTTGTTT [XGTACX_site5911] | 9.49 |
| AGAGAGAAAGTTATAACATGCAACAATTTTTAGAAG [TGCATGCA_site1] | 9.19 |
| CTTTAAACCCTGAACACACACAAATACACCCAAAAA [CACACA_site4297] | 9.74 |
| TTTGTATTAAAAAAAAAAAAAAAAAAAATGAATAAA [TGCATGCA_negctrl_site292] | 8.88 |
| ATAACGGAAAAAAAAAGTACATGATATAAACATGAA [XGTACX_site8428] | 9.35 |
| TTTTTTTTTTTTTTTTTTTTTTTTCATTTGATATTA [TGCATGCA_negctrl_site112] | 8.45 |
| TTATTTATTCTATGTGCATGTTATTTTTTTTTTTCG [TGCATGCA_site262] | 9.52 |
| AAAAATAAGATATATACACACATATAAATATAAATA [CACACA_site7396] | 9.75 |
| AAGAAAAATACTACGTGTACCAAACTTCCTACCAAC [XGTACX_site1426] | 9.52 |
| TATATATATATATTATGTACATATAAATATATTTTT [XGTACX_site1509] | 9.07 |
| AATATATATATGTGTACACATCCAAAATAGGCATAC [CACACA_site5705] | 9.64 |
| TGTAAATATAAAAGATAATGATAAAAGGGACATTTT [CACACA_negctrl_site661] | 9.47 |
| ATATATATATAAATATGTACATATTTATATATGAAT [XGTACX_site3220] | 9.32 |
| ATCTATATTATAATAACACACATATATTATAGTATA [CACACA_site6330] | 9.45 |
| TTTTTATGTGTATATTATTACATTTACATCTTTAAC [CACACA_negctrl_site1676] | 9.35 |

— the supplement of paper PMC11417369
